Source: patent US20250270341A1 (Alector, published 2025)

T1: Full length mouse CD98hc on CHO cells (mouse, UniProt P10852 1-526)
T1 construct: CHO cells stably overexpressing it; also called CHO-mouse CD98hc; CHO-mCD98hc
T1 sequence: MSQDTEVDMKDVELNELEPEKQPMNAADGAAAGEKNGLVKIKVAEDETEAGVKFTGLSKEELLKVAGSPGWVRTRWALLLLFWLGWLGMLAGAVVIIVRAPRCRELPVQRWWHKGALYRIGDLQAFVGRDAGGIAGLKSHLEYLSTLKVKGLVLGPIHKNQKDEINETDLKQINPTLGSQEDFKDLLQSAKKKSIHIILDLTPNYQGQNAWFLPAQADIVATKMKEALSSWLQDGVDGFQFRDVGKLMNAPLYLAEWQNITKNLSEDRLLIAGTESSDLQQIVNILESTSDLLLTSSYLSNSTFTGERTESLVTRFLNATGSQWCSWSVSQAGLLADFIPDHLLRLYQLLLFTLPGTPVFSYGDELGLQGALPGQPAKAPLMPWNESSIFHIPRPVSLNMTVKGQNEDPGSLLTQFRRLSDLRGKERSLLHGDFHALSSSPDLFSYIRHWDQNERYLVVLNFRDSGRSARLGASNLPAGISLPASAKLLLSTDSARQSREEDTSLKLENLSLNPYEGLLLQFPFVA

T2: human CD98hc endogenously expressed on HCMEC/D3 cells (human)
T2 construct: human brain endothelial cell line
T2 chain: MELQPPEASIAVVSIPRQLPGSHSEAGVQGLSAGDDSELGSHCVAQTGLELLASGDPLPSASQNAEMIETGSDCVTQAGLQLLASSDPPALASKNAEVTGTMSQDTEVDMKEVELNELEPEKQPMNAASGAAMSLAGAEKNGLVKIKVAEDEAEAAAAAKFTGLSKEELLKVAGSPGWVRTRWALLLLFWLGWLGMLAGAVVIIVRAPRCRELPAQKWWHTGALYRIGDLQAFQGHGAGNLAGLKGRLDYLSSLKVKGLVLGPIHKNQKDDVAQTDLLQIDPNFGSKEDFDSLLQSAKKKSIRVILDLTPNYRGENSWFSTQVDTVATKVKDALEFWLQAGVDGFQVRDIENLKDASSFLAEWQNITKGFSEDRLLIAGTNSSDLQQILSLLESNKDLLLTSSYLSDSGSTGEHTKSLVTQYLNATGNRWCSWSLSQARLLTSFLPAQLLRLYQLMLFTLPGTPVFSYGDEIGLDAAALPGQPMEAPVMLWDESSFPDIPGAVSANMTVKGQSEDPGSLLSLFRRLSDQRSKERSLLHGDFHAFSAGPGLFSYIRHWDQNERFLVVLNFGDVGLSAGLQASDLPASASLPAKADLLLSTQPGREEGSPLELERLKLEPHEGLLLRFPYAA

T3: Full length human CD98hc on CHO cells (human)
T3 construct: CHO cells stably overexpressing it; also called CHO-human CD98hc; CHO-huCD98hc
T3 chain: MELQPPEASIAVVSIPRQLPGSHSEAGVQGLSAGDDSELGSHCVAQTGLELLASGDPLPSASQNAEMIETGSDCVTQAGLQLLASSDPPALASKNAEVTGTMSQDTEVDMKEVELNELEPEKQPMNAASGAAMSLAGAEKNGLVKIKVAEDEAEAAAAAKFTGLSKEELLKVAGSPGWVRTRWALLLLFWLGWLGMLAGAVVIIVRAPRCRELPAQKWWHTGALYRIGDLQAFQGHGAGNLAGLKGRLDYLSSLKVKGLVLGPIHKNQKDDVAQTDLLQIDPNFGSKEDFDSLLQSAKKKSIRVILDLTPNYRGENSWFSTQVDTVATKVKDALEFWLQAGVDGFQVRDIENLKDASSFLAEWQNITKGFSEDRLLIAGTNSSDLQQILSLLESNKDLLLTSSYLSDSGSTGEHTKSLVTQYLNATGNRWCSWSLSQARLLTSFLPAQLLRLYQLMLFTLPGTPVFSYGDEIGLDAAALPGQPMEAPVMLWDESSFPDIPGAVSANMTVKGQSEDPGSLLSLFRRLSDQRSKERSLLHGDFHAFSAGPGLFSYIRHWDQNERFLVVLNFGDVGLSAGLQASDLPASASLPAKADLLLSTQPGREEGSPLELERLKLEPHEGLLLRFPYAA


Assays:
Assay in all cases: FACS, 5 ug/ml
[1] = biological target: T1, Full length mouse CD98hc on CHO cells
Method: (§1) To determine binding retention of 2+1 anti-CD98hc bispecific antibodies by FACS, antibodies were evaluated for binding to HCMEC/D3 cells (a cell line derived from human brain endothelial cells), overexpressing human and mouse CD98hc CHO cell lines, and parental CHO cells for non-specific binding. Cells were seeded in tissue culture plates (50,000 cells/well) and washed and resuspended in FACS buffer (PBS+2% BSA+1 mM EDTA). The 2+1 anti-CD98hc bispecific antibodies were then incubated with cells (5 μg/ml, 1 hr, on ice) and washed twice with FACS buffer. Cells were then incubated with allophycocyanin conjugated anti-mouse secondary antibody (Jackson Immunoresearch) (1:1000, 30 min, on ice) and then washed twice with FACS buffer. Next, cells were resuspended in FACS buffer supplemented with 0.5% propidium iodide (Thermo Fisher). Anti-CD98hc binding was then analyzed on the iQue flow cytometer (IntelliCyt) by measuring the Mean Fluorescent Intensity (MFI). FACS data are summarized below in Table 17, shown as MFI fold-change relative to isotype hIgG1 control.

[2] = biological target: T2, human CD98hc endogenously expressed on …
Method: as §1

[3] = biological target: T3, Full length human CD98hc on CHO cells
Method: as §1

Row | MFI fold-change relative to isotype hIgG1 [1] | MFI fold-change relative to isotype hIgG1 [2] | MFI fold-change relative to isotype hIgG1 [3] | Binder
1 | 1.5 | 80.5 | 13 | CD98hc.04.006 (2+1 bispecific antibody) (bispecific antibody) heavy 1: EVRLLESGGGLVQPGGSLRLSCAASGFTFSNYAMGWVRQAPGKGLEWVSAISGSGGSTYYADSVKGRFTTSRDDSKNALYLQMNSLRAEDTAVYYCARGGPGWYAADVWGQGTTVTVSSASTKGPSVFPLAPSSKSTSGGTAALGCLVKDYFPEPVTVSWNSGALTSGVHTFPAVLQSSGLYSLSSVVTVPSSSLGTQTYICNVNHKPSNTKVDKKV[here human IgG1 Fc with changes without letters]GGGGSGGGGSGGGGSEVNLVESGGDLVQPGGSLRLSCATSGFTFTDYFMSWVRQPPGKALEWLGFIRNKAYGYTTEYSASVKGRFTISRDNSQSIFYLQMNTLRLEDSATYYCARGPFISTAPFAYWGQGTLVTVSAGGSEGKSSGSGSESKSTGGSDIVMSQSPSSLAVSVGETVTMSCKSSQSLLYSSNQKNYLAWYQQKPGQSPKLLIYWGSTRESGVPDRFTGSGSGTDFTLTISSVKAEDLAVYYCQHYYGYPWTFGGGTKLEIK heavy 2: EVRLLESGGGLVQPGGSLRLSCAASGFTFSNYAMGWVRQAPGKGLEWVSAISGSGGSTYYADSVKGRFTTSRDDSKNALYLQMNSLRAEDTAVYYCARGGPGWYAADVWGQGTTVTVSS[here human IgG1 constant region with changes without letters] light: DIQMTQSPSSLSASVGDRVTITCRASQSISSYLNWYQQKPGKAPKLLIYAASSLQSGVPSRFSGSGSGTDFTLTISSLQPEDFATYYCQQADLPAFAFGGGTKVEIKRTVAAPSVFIFPPSDEQLKSGTASVVCLLNNFYPREAKVQWKVDNALQSGNSQESVTEQDSKDSTYSLSSTLTLSKADYEKHKVYACEVTHQGLSSPVTKSFNRGEC
2 | 0.3 | 1.5 | 0.9 | CD98hc.04.009 (2+1 bispecific antibody) (bispecific antibody) heavy 1: EVRLLESGGGLVQPGGSLRLSCAASGFTFSNYAMGWVRQAPGKGLEWVSAISGSGGSTYYADSVKGRFTTSRDDSKNALYLQMNSLRAEDTAVYYCARGGPGWYAADVWGQGTTVTVSSASTKGPSVFPLAPSSKSTSGGTAALGCLVKDYFPEPVTVSWNSGALTSGVHTFPAVLQSSGLYSLSSVVTVPSSSLGTQTYICNVNHKPSNTKVDKKV[here human IgG1 Fc with changes without letters]GGGGSGGGGSGGGGSQVQLKESGPGLVAPSQSLSITCTVSGFSLTSYGVHWVRQPPGKGLEWLGVIWAGGSTYYNSALMSRLSISKDNAKSQVLLKMSSLQTDDTAMYYCARDNYGGVYLDVWGAGTTVTVSSGGSEGKSSGSGSESKSTGGSENVLTQSPASMSASPGEKVTMTCRASSSVSSSYLHWYQQKSGASPKLWIYSTSNLASGVPARFSGSGSGTSYSLTISSVEAEDAATYYCQQYSGYPLTFGSGTKLEIK heavy 2: EVRLLESGGGLVQPGGSLRLSCAASGFTFSNYAMGWVRQAPGKGLEWVSAISGSGGSTYYADSVKGRFTTSRDDSKNALYLQMNSLRAEDTAVYYCARGGPGWYAADVWGQGTTVTVSS[here human IgG1 constant region with changes without letters] light: DIQMTQSPSSLSASVGDRVTITCRASQSISSYLNWYQQKPGKAPKLLIYAASSLQSGVPSRFSGSGSGTDFTLTISSLQPEDFATYYCQQADLPAFAFGGGTKVEIKRTVAAPSVFIFPPSDEQLKSGTASVVCLLNNFYPREAKVQWKVDNALQSGNSQESVTEQDSKDSTYSLSSTLTLSKADYEKHKVYACEVTHQGLSSPVTKSFNRGEC
3 | 0.6 | 42.2 | 16 | CD98hc.04.010 (2+1 bispecific antibody) (bispecific antibody) heavy 1: EVRLLESGGGLVQPGGSLRLSCAASGFTFSNYAMGWVRQAPGKGLEWVSAISGSGGSTYYADSVKGRFTTSRDDSKNALYLQMNSLRAEDTAVYYCARGGPGWYAADVWGQGTTVTVSSASTKGPSVFPLAPSSKSTSGGTAALGCLVKDYFPEPVTVSWNSGALTSGVHTFPAVLQSSGLYSLSSVVTVPSSSLGTQTYICNVNHKPSNTKVDKKV[here human IgG1 Fc with changes without letters]GGGGSGGGGSGGGGSQVQLQQSGAELMKPGASVKISCKATGYTFSTYWIEWVKQRPGHGLEWIGEILPGSGTTTYNEKFKGKATFTADTSSNTAYMQLSSLTSEDSAVYYCARRTVYYRYEGIDYWGQGTTLTVSSGGSEGKSSGSGSESKSTGGSQIVLTQSPAIMSASPGEKVTITCSASSSVSYMFWFQQRPGTSPKLWIYTTSNLASGVPARFSGSGSGTSYSLTISRMEAEDAATYYCQQKNNYPFTFGSGTKLEIK heavy 2: EVRLLESGGGLVQPGGSLRLSCAASGFTFSNYAMGWVRQAPGKGLEWVSAISGSGGSTYYADSVKGRFTTSRDDSKNALYLQMNSLRAEDTAVYYCARGGPGWYAADVWGQGTTVTVSS[here human IgG1 constant region with changes without letters] light: DIQMTQSPSSLSASVGDRVTITCRASQSISSYLNWYQQKPGKAPKLLIYAASSLQSGVPSRFSGSGSGTDFTLTISSLQPEDFATYYCQQADLPAFAFGGGTKVEIKRTVAAPSVFIFPPSDEQLKSGTASVVCLLNNFYPREAKVQWKVDNALQSGNSQESVTEQDSKDSTYSLSSTLTLSKADYEKHKVYACEVTHQGLSSPVTKSFNRGEC
4 | 0.7 | 27.5 | 4.4 | CD98hc.04.011 (2+1 bispecific antibody) (bispecific antibody) heavy 1: EVRLLESGGGLVQPGGSLRLSCAASGFTFSNYAMGWVRQAPGKGLEWVSAISGSGGSTYYADSVKGRFTTSRDDSKNALYLQMNSLRAEDTAVYYCARGGPGWYAADVWGQGTTVTVSSASTKGPSVFPLAPSSKSTSGGTAALGCLVKDYFPEPVTVSWNSGALTSGVHTFPAVLQSSGLYSLSSVVTVPSSSLGTQTYICNVNHKPSNTKVDKKV[here human IgG1 Fc with changes without letters]GGGGSGGGGSGGGGSDVQLQESGPDLVKPSQSLSLTCSVTVYSFTSVYSWHWIRQFPGNKLEWMGYIHDSGTTNYNPSLKSRISVTRDTSKNQFFLQLNSVTTEDTATYYCARGRPYGYDGFAYWGQGTLVTVSAGGSEGKSSGSGSESKSTGGSDIQMTQSSSYLSVSLGDRVTITCKASDHINNWLAWYQQKPGNAPRLLITGAVNLETGVPSRFSGSGSGKDYTLSITSLQTEDVATYYCQQYWSIPRTFGGGTNLEIK heavy 2: EVRLLESGGGLVQPGGSLRLSCAASGFTFSNYAMGWVRQAPGKGLEWVSAISGSGGSTYYADSVKGRFTTSRDDSKNALYLQMNSLRAEDTAVYYCARGGPGWYAADVWGQGTTVTVSS[here human IgG1 constant region with changes without letters] light: DIQMTQSPSSLSASVGDRVTITCRASQSISSYLNWYQQKPGKAPKLLIYAASSLQSGVPSRFSGSGSGTDFTLTISSLQPEDFATYYCQQADLPAFAFGGGTKVEIKRTVAAPSVFIFPPSDEQLKSGTASVVCLLNNFYPREAKVQWKVDNALQSGNSQESVTEQDSKDSTYSLSSTLTLSKADYEKHKVYACEVTHQGLSSPVTKSFNRGEC
